Measured values taken from PubChem BioAssay AID686979 (National Center for Advancing Translational Sciences (NCATS), 2013).
“And” between values parts separate entries of the source, which are not always exact repeats. Equal entries are not always repeated. Out of some 420,000 compounds screened, about 50,000 (12%) were called active. The shares of active, inactive and inconclusive entries below differ from those in the screen. The call rests on the fitted dose curve; in most records, active means well fitted inhibition curve with a large enough effect; inconclusive means small, poorly fitted or top-dose-only effect; inactive means flat fitted curve, though single readings scatter. Potencies beside an inconclusive call are fits to weak or partial responses and may not hold up.

Assay: qHTS for Inhibitors of human tyrosyl-DNA phosphodiesterase 1 (TDP1): qHTS in cells in presence of CPT; further: nearly all actives have a fitted effect of over 55% in size
Conditions: chicken DT40 Tdp1-/-;hTDP1 cells + 20 nM CPT, ATP luminescence, 48 h; activity change, negative = growth inhibition: at 46.2 µM (top of the series) unless noted
In short: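 Cell growth measured by CellTiter-Glo luminescence after a minimum 48 h, 37 C compound exposure with 20 nM CPT in Tdp1-knockout DT40 cells stably expressing hTDP1, seeded 400/well; qHTS titration format.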
On the % scale 0 is the no-effect control and ±100 the full control effect; potency means the concentration at half of the fitted maximal effect; tags describe the fitted curve by direction and shape.

Compound | Potency | activity change, negative = growth inhibition
CCN(CC)c1ccc2cc(-c3nc(-c4cc(OC)c(OC)c(OC)c4)no3)c(=O)oc2c1 | active: 20.6 µM | –
Cc1cc(C)c2c(n1)SCCN2C(=O)Nc1ccc(C(=O)Nc2ccc(C(C)C)cc2)cc1 | inconclusive: 4.61 µM [inhibitor, full curve, poor fit] | –
CN(C)c1oc(-c2ccccc2[N+](=O)[O-])nc1C#N | inconclusive: 29.1 µM [inhibitor, single point] | –
C=CCn1c(CCNC(=O)c2cccs2)n[nH]c1=S | – | inactive: -7.48%
CC(C)C(=O)Nc1cccc(NC(=O)c2ccc(Cl)cc2Cl)c1 | – | inactive: -23%
COc1cc(CCC(=O)Nc2sccc2C#N)cc(OC)c1OC | inconclusive: 20.6 µM [inhibitor, single point] | –
Cc1[nH]n(-c2ccccc2)c(=O)c1N=Nc1ccccc1C(=O)O | inconclusive: 25.9 µM [inhibitor, single point] | –
O=C(NCCOc1nc(N2CCCCC2)nc(N2CCCCC2)n1)Nc1ccccc1 | inconclusive: 16.4 µM [inhibitor, single point] | –
O=C(CSc1ncnc2nc[nH]c12)N1CCN(c2ccc(Cl)cc2)CC1 | active: 23.1 µM | –
Cc1ccc(-c2oc3ccccc3c(=O)c2O)cc1 | active: 25.9 µM | –
COc1ccc(NC(=S)Nc2ccc(S(=O)(=O)N3CCCCC3)cc2)cc1 | inconclusive: 23.1 µM [inhibitor, single point] | –
Cc1cc(C)cc(-n2ccn(CC(=O)Nc3ccccc3F)c(=O)c2=O)c1 | – | inactive: -0.038%
CCOC(=O)C1CCN(S(=O)(=O)CCNC(=O)c2ccccc2)CC1 | – | inactive: 15.1%
CC(C)(C)C1CCC(C(=O)Nc2ccccc2)CC1 (stereo not drawn) | inconclusive: 16.4 µM [inhibitor, single point] | –
Cc1cc(C(=O)CN2C(=O)NC3(CCCc4ccccc43)C2=O)c(C)n1Cc1cccs1 (stereo not drawn) | active: 16.4 µM | –
CCOc1ccc(-n2nc(CO)c(C(=O)NCc3cccc(OC)c3)n2)cc1 | inconclusive: 18.4 µM [inhibitor, single point] | –
Cc1ccc(C)c(NC(=O)C(c2ccccc2)N2Cc3ccccc3C2=O)c1 (stereo not drawn) | inconclusive: 25.9 µM [inhibitor, single point] | –
CN(C)CCNC(=O)c1sc2cccc(F)c2c1Cl | – | inactive: 20.8%
CC(C)N(Cc1nc(-c2ccccc2)no1)C(=O)c1ccc(Cl)cc1 | active: 18.4 µM | –
COC(=O)c1ccccc1NC(=O)Cn1c(=O)n(CCCC(=O)NCc2ccccc2OC)c(=O)c2ccccc21 | – | inactive: -28.5%
COC(=O)C1=C(C)N(c2ccc(OC)cc2)C(C)=C(C(=O)OC)C1c1ccccc1 | inconclusive: 29.1 µM [inhibitor, single point] | –
COc1ccc(CN2C[C@H]3CCCN3c3cc(Br)ccc3S2(=O)=O)cc1 | active: 2.06 µM | –
CCOc1ccc(NC(=O)Cn2c(=O)n(CCCC(=O)NC3CCN(Cc4ccccc4)CC3)c(=O)c3ccccc32)cc1 | inconclusive: 29.1 µM [inhibitor, single point] | –
CC(=O)N1CCCc2cc(S(=O)(=O)N3CCN(c4cccc(C(F)(F)F)c4)CC3)ccc21 | inconclusive: 29.1 µM [inhibitor, single point] | –
COc1ccc(NC(=O)C(=O)NCCC2CCCCN2S(=O)(=O)c2cccs2)cc1 (stereo not drawn) | active: 3.66 µM | –

Compound | Potency | activity change, negative = growth inhibition
Cc1ccc(C)c(NC(=O)c2cc3ccccc3o2)c1 | – | inactive: -1.68%
Cc1ccc(-c2cc(C(F)(F)F)nn2-c2ccc(S(N)(=O)=O)cc2)cc1 | inconclusive: 33.5 µM [inhibitor, single point] and inconclusive: 29.1 µM [inhibitor, single point] | –
O=C(Cn1cc(C(F)(F)F)ccc1=O)N/N=C/c1ccc(F)cc1 | – | inactive: 22.6%
CCCn1c(SCC(=O)OCC)nc(C(F)(F)F)cc1=O | – | inactive: -0.394%
O=C(c1cccn2c(=O)c3ccc(Cl)cc3nc12)N1CCN(Cc2ccc3c(c2)OCO3)CC1 | inconclusive: 20.6 µM [inhibitor, single point] | –
CSc1ccccc1C(=O)NC1CCCN(Cc2ccccc2F)C1 (stereo not drawn) | inconclusive: 29.1 µM [inhibitor, single point] | –
COCCN(C(=O)C(F)(F)F)C(C(=O)NC1CCCCC1)c1ccco1 (stereo not drawn) | – | inactive: -24.9%
O=C1c2ccccc2C(=O)c2c(O)c(O)cc(O)c21 | inconclusive: 29.1 µM [inhibitor, single point] | –
Oc1ccc(N2CCN(c3ncnc4sc(-c5ccccc5)cc34)CC2)cc1 | inconclusive: 25.9 µM [inhibitor, single point] | –
CCCCCCC[C@@H](C/C=C/CCC(=O)N(C)C/C(=C/Cl)C/C(=C\C(=O)N1C[C@H](O)CC1=O)OC)OC | active: 9.2 µM | –
CC(C)COC(=O)N(C)C[C@H]1OCc2cnnn2CCCC(=O)N([C@H](C)CO)C[C@H]1C | – | inactive: -2.03%
CC(=O)Nc1ccc(S(=O)(=O)N(C)CC(=O)OC(C)C(=O)N(C)Cc2ccccc2)cc1 (stereo not drawn) | – | inactive: 12.5%
C=CCn1c(=N)n(CC(O)COc2ccc(OC)cc2)c2ccccc21 (stereo not drawn) | active: 16.4 µM | –
O=C(Cn1cnc2ccccc21)Nc1cccc([N+](=O)[O-])c1 | inconclusive: 20.6 µM [inhibitor, partial curve] | –
Cc1cn2c(=O)cc(COc3ccccc3NC(=O)c3ccc(Cl)cc3)nc2s1 | – | inactive: -0.968%
CCOC(=O)c1ccc(NC(=O)CSc2nc3c([nH]c4ccccc43)c(=O)n2C)cc1 | active: 8.2 µM | –
COc1cc(OC)cc(C(=O)NCc2n[nH]c(=S)n2-c2ccccc2)c1 | – | inactive: 0.284%
Cc1noc(C)c1C(=O)NCC(=O)Nc1ccccc1Br | – | inactive: -9.76%
CCCCc1nc2ccccc2n1CC(=O)N(COCC)c1c(C)cccc1CC | inconclusive: 20.6 µM [inhibitor, single point] | –
CC1CCCCC1NC(=O)CCNS(=O)(=O)c1ccc2c(c1)CCC(=O)N2 (stereo not drawn) | – | inactive: -18.6%
CC(=O)c1cccc(NC(=O)CSCc2ccccc2)c1 | inconclusive: 18.4 µM [inhibitor, single point] | –
Cc1ccc2oc(-c3ccc(Cl)c(NC(=O)c4ccc(OC(C)C)cc4)c3)nc2c1 | – | inactive: -0.576%
O=C1c2ccccc2C(=O)c2c(Nc3ccc(CCO)cc3)ccc(O)c21 | inconclusive: 16.4 µM [inhibitor, single point] | –
COc1ccc(-c2ccc(CN3C(CC(C)C)C(=O)N(Cc4cn(CCC5OCCO5)nn4)CCS3(=O)=O)cc2)cc1OC (stereo not drawn) | active: 20.6 µM | –
Fc1ccc(C2CCCN2Cc2nc(Cc3ccccc3)no2)cc1 (stereo not drawn) | inconclusive: 29.1 µM [inhibitor, single point] | –

Compound | Potency | activity change, negative = growth inhibition
CCO[C@@H]1OC(C(=O)N2CCN(Cc3ccccc3)CC2)=C[C@H](C2CC2)[C@H]1CCCO | inconclusive: 18.4 µM [inhibitor, single point] | –
C=C(CCC(=O)c1ccccc1)C(=O)c1ccccc1 | active: 6.51 µM | –
N#CC(c1ccc(F)cc1)c1ccc(C(=O)c2ccc(F)cc2)cc1 (stereo not drawn) | inconclusive: 18.4 µM [inhibitor, single point] | –
COc1ccccc1CN1CC(C(=O)NCC2CCCO2)CC1=O (stereo not drawn) | – | inactive: -3.56%
COc1ccc(C(=O)CSc2nnc(C3CC3)n2N)cc1 | inconclusive: 23.1 µM [inhibitor, single point] | –
O=C(CN1C(=O)NC2(CCCCC2)C1=O)Nc1ccccc1N1CCCCC1 | inconclusive: 23.1 µM [inhibitor, single point] | –
COc1cc(NC(=S)NCc2cccs2)cc(OC)c1 | inconclusive: 23.1 µM [inhibitor, single point] | –
c1cncc(CNc2cccc(-c3nc4ccccc4[nH]3)c2)c1 | inconclusive: 29.1 µM [inhibitor, single point] | –
Cc1ccc(S(=O)(=O)N(CC(=O)Nc2ccc3c(c2)OCO3)c2ccc(C)c(Cl)c2)cc1 | active: 16.4 µM | –
COc1ccc(C(=O)NC(=S)NNC(=O)c2c(-c3ccccc3)noc2C)cc1OC | – | inactive: -3.04%
CCc1c(C)c2ccc(OCC(=O)OC(C)C)c(C)c2oc1=O | inconclusive: 9.2 µM [inhibitor, partial curve] | –
CCOC(=O)C1=C(C)NC(=S)NC1c1ccc(C)s1 (stereo not drawn) | – | inactive: -2.36%
COc1ccc(/C=C/C(=O)Nc2ccc3nc(N4CCCCC4)cc(C)c3c2)cc1OC | active: 2.91 µM | –
CCCCCn1c(CN2CCN(C)CC2)nc2c1c(=O)n(C)c(=O)n2C | – | inactive: -2.14%
CN(CC(=O)NCCc1ccc(S(N)(=O)=O)cc1)CC(=O)Nc1ccc(Cl)cc1 | – | inactive: 1.45%
CC(C(=O)N1CCCc2c1c(=O)oc1ccc(O)cc21)N1CCc2ccccc2C1 (stereo not drawn) | inconclusive: 29.1 µM [inhibitor, single point] | –
CC1Cc2ccccc2N1C(=O)CSc1nnc(-c2cccc(Cl)c2)o1 (stereo not drawn) | active: 14.6 µM | –
Cc1ccc(NC(=S)NC(C)CCc2ccccc2)cc1C (stereo not drawn) | inconclusive: 23.1 µM [inhibitor, single point] | –
Cc1ccc(S(=O)(=O)Nc2ccc3c(c2)c2c(n3S(=O)(=O)c3ccc(C)cc3)CCCC2=O)cc1 | active: 5.8 µM | –
COc1cc(C(=S)N2CCC(C(N)=O)CC2)ccc1O | inconclusive: 29.1 µM [inhibitor, single point] | –
COc1cc2c(NC3CCN(C)CC3)nc(N3CCCN(C)CC3)nc2cc1OCCCC(C)C | active: 1.12 µM | –
CCn1c(CNC(=O)C23CC4CC(CC(C4)C2)C3)nnc1SCC(=O)Nc1ccc(F)cc1 | inconclusive: 29.1 µM [inhibitor, single point] | –
CCc1ccc(C2C(C(C)=O)=C(C(=O)OC)Nc3nnnn32)cc1 (stereo not drawn) | inconclusive: 29.1 µM [inhibitor, single point] | –
